Results published in publication PMC4841541.
Where a chain is given by its changes, count along the chain named. Results are given in words; binding and its absence hold for the method and conditions named. Binding seen in cells or lysates may run through a third protein. Some entries that bind do so weakly or less than the wild type. Where a sequence is shown, tags or fusion partners need not be part of it.

By UniProt entry, the sequences of proteins in these tests, tags left out.
UniProt Q96SB4: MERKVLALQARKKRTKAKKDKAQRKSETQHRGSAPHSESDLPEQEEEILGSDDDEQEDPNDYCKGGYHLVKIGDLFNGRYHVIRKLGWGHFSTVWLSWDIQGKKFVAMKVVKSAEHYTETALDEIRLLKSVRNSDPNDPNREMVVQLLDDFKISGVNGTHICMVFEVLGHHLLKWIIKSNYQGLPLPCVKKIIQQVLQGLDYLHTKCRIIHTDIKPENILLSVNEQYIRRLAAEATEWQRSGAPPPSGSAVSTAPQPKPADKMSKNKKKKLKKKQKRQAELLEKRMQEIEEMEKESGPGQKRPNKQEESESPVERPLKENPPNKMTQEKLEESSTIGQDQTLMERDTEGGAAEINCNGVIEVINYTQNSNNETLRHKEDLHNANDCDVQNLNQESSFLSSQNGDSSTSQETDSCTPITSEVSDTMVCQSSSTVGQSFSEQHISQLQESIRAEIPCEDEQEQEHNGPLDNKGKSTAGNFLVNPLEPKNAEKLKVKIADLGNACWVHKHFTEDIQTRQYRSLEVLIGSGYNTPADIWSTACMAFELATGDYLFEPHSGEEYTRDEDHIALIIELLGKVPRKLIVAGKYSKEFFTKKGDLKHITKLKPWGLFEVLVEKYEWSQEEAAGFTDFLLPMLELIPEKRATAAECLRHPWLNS
UniProt P31751: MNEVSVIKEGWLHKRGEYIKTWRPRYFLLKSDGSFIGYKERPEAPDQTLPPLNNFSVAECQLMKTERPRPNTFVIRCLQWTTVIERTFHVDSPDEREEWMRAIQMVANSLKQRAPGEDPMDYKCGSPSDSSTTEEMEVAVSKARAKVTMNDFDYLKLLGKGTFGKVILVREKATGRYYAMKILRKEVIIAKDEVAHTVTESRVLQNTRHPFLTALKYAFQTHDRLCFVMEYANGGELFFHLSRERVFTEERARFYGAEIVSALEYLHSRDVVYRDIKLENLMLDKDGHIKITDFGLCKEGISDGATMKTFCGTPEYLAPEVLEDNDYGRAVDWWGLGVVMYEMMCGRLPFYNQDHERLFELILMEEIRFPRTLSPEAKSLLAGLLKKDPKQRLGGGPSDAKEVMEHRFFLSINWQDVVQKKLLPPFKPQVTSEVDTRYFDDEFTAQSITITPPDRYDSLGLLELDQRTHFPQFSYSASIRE
UniProt P31749: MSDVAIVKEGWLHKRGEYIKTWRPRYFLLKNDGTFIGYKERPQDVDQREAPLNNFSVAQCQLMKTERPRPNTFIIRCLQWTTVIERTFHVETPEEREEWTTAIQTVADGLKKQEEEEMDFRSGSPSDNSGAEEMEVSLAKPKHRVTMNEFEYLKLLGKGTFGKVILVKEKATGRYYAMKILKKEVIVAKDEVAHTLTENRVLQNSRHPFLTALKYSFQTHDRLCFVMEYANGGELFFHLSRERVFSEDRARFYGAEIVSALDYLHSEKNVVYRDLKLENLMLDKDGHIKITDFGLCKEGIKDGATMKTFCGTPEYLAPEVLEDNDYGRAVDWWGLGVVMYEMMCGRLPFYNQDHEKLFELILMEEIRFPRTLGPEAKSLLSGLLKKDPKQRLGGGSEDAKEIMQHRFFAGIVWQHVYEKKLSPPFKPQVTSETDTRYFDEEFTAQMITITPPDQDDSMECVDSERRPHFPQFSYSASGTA

Assays:
Experiment in all cases: pull-down; GST or GST fusion proteins immobilized on glutathione-Sepharose beads, incubated with 293T cell extracts (~200 μg total protein) in 20 mM Hepes pH 7.5, 50–150 mM NaCl, 1% Triton X-100, 0.5 mM PMSF, 0.5 ml, 60 min at room temperature; four washes; Western blot with anti-HA or anti-FLAG; only the target purified
[1] = biological target: T1, GST-LBRNt(62–92) (turkey (cDNA said to be of chicken LBR)) (UniProt P23913)
T1 sequence: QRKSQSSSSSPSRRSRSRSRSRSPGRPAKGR

[2] = biological target: T2, GST-LBRNt(62–92)S82A (turkey (cDNA said to be of chicken LBR)) (UniProt P23913)
T2 sequence: T1 sequence with S21A

[3] = biological target: T3, GST-LBRNt(62–92)S84A (turkey (cDNA said to be of chicken LBR)) (UniProt P23913)
T3 sequence: T1 sequence with S23A

[4] = biological target: T4, GST-LBRNt(62–92)S76G (turkey (cDNA said to be of chicken LBR)) (UniProt P23913)
T4 sequence: T1 sequence with S15G

[5] = biological target: T5, GST-LBRNt(62–92)S78G (turkey (cDNA said to be of chicken LBR)) (UniProt P23913)
T5 sequence: T1 sequence with S17G

[6] = biological target: T6, GST-LBRNt(62–92)ΔRS (turkey (cDNA said to be of chicken LBR)) (UniProt P23913)
T6 sequence: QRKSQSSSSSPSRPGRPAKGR

[7] = biological target: T7, GST-LBRNt(62–92)S80A (turkey (cDNA said to be of chicken LBR)) (UniProt P23913)
T7 sequence: T1 sequence with S19A

Row | Substance | binding [1] | binding [2] | binding [3] | binding [4] | binding [5] | binding [6] | binding [7]
1 | FLAG-SRPK1 (from UniProt Q96SB4 1-655) (enzyme) | binds | binds | binds | binds | binds | no binding (tested: extract, ~200 μg of total protein) | binds
2 | myristoylated FLAG-Akt2 (from UniProt P31751 1-481) (enzyme) | no binding (tested: extract, ~200 μg of total protein) | no binding (tested: extract, ~200 μg of total protein) | no binding (tested: extract, ~200 μg of total protein) | no binding (tested: extract, ~200 μg of total protein) | no binding (tested: extract, ~200 μg of total protein) | no binding (tested: extract, ~200 μg of total protein) | no binding (tested: extract, ~200 μg of total protein)
3 | myristoylated HA-Akt1 (from UniProt P31749 1-480) (enzyme) | no binding (tested: extract, ~200 μg of total protein) | no binding (tested: extract, ~200 μg of total protein) | no binding (tested: extract, ~200 μg of total protein) | no binding (tested: extract, ~200 μg of total protein) | no binding (tested: extract, ~200 μg of total protein) | no binding (tested: extract, ~200 μg of total protein) | no binding (tested: extract, ~200 μg of total protein)
